From PubChem BioAssay AID1508623 (National Center for Advancing Translational Sciences (NCATS), 2021)
Screen size: about 48,000 compounds; about 450 (0.94%) were called active. About 19% were inconclusive and are not listed. Calls come from the whole dose curve; as a rule, active = well fitted inhibition curve with a large enough effect; inconclusive = small, poorly fitted or top-dose-only effect; inactive = no such curve, though single readings can be large or run the other way. Some of the results follow.

assay: Primary qHTS for Identification of Small Molecule Inhibitors of Huntingtin Promoter Activity; conditions: HEK293 HTT promoter firefly luciferase reporter (activity 0% = vehicle and -100% = no light), 24 h; series mostly up to 57.5 µM; activity change, negative = inhibition: at the top concentration; note: nearly all actives have a fitted effect of over 50% in size
Procedure, shortened: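 Luminescence was read after Dual-Glo reagent and a 10 min room-temperature incubation. Values were normalized to vehicle (0% activity) and zero RLU (-100% activity). Reporter HEK293 cells had been exposed to compounds (up to 57.5 uM final) for 24 h.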

Activity change, negative = inhibition, inactive:
CCOc1ccccc1-c1nnc(SCc2ccc(Cl)cc2)o1 -9.6%
COc1ccc(-n2c(SCC(=O)N3CCC(C)CC3)nc3c([nH]c4ccccc43)c2=O)cc1 -8.87%
CC1=C(C(=O)Nc2ccc(C)cc2C)C(c2sccc2C)n2ncnc2N1 (stereo unspecified) -10.2%
CCOc1cccc(C2c3c(oc4ccccc4c3=O)C(=O)N2c2nc(C)c(C(=O)OC)s2)c1 (stereo unspecified) -19.6% [at 11.5 µM]
COc1ccc2cccc(CCNC(C)=O)c2c1 -1.91%
Cc1ccc2occ(CC(=O)Nc3nnc(C(C)C)s3)c2c1 -29.7%
Cc1ccc(-n2ncc(C(=O)Nc3ccc(C)c(F)c3)c2C2CCN(C(=O)OC(C)(C)C)CC2)cc1C -1.97%
CCOc1cc(C2c3c(oc4ccccc4c3=O)C(=O)N2Cc2ccc3c(c2)OCO3)ccc1O (stereo unspecified) 3.09%
Cc1ccc(CNC(=O)CCCCn2c(=O)c3ccccc3n(Cc3ccc(Cl)cc3)c2=O)cc1 -5.04%
CCC(C(=O)OCc1cc(=O)n2nc(CCOC)sc2n1)c1ccccc1 (stereo unspecified) -12.5%
Cc1ccccc1NC(=O)c1nc(-c2ccncc2)no1 9.5%
Cc1ccc(NC(=O)Cn2c(CCC(=O)O)ccc2-c2cccs2)cc1 -28.4%
COc1cccc(N2CCN(c3nc4ccc(C(=O)c5ccccc5)cc4n4c(C)nnc34)CC2)c1 6.24%
Cc1cc(C)c2c(=O)cc(C(=O)Nc3ccc(S(=O)(=O)Nc4nc(C)cc(C)n4)cc3)oc2c1 14%
Cc1ccc(-c2cn3c(n2)sc2cc(C(=O)N4CCCCC4)ccc23)cc1 -29.4%
COC(=O)C(C)Sc1nc2c([nH]c3ccccc32)c(=O)n1-c1ccc(OC)cc1 (stereo unspecified) -8.06%
O=C(Nc1ccc2nc(SCC(=O)N3CCCC3)sc2c1)c1ccc(F)cc1 -21.7%
COc1ccc(CNC(=O)CCCn2c(SCC(N)=O)nc3cc4c(cc3c2=O)OCO4)cc1 -23.3%
Cc1cc(Nc2cccc(Cl)c2C)n2nc(Cc3ccccc3)nc2n1 -28.3%
CCOc1ccccc1NC(=O)Cn1c(=O)n(Cc2ccccc2)c(=O)c2c(C)c(C(=O)N(C)C)sc21 -3.4%
CCN(CC)C(=O)CSc1nc2cc3c(cc2c(=O)n1Cc1ccc(C(=O)NCCc2ccc(OC)c(OC)c2)cc1)OCO3 -21.3%
COc1cc(Cl)c(C)cc1NC(=O)c1cn(CC(C)C)c(=O)c2cc(OC)c(OC)cc12 -7.34%
CC(C)OCCCNC(=O)CCCn1c(SCC(=O)c2ccc(Br)cc2)nc2c(sc3ccccc32)c1=O -14.5%
CC(NC(=O)c1ccccc1)c1nc2ccccc2n1Cc1ccc(Cl)cc1 (stereo unspecified) 14.3%
COc1ccc(CNC(=O)c2cnn3c(C)c(Cc4ccc(F)cc4)c(C)nc23)cc1 -14.5%
Cc1cc(C)c(NC(=O)Cn2c(=O)n(CCCCC(=O)NCc3ccccc3Cl)c(=O)c3ccccc32)c(C)c1 0.0683%
COc1cc(CN(CC2CCCO2)C(=O)c2ccccc2F)cc(OC)c1OC (stereo unspecified) 2.59%
Cc1ccc(Cl)cc1NC(=O)Cn1nc2c(cc1=O)CC(C)CC2 (stereo unspecified) 2.11%
CCOc1ccc(NC(=O)CN2C(=O)COc3ccc(S(=O)(=O)Nc4ccccc4)cc32)cc1 -11%
Cc1ccc(OCCSc2nc3ccccc3n2CC(=O)N2CCOCC2)c(C)c1 -21%
COc1ccc(C(=O)Nc2ccc3nc4n(c(=O)c3c2)CCCCC4)cc1OC -5.4%
CCC(=O)N1CCc2cc(Br)cc(S(=O)(=O)N3CCC(C(=O)NC(C)(C)C)CC3)c21 16.6%
O=C(NNc1ncnc2c1cnn2-c1ccccc1)c1cccc(Cl)c1 -17.7%
CC(C)Cn1c(=O)c2ccccc2n2c(-c3cccc(Cl)c3)nnc12 -0.777%
COc1ccc(Cl)c(Cn2c(NCCN)nc3c2c(=O)n(C)c(=O)n3C)c1 -10.3%
COc1ccc(C(=O)NCc2nnnn2-c2ccc(C)c(C)c2)cc1 -16.1%
N#Cc1ccc(-c2cccs2)nc1SCc1ccc(Cl)cc1Cl -10.5%
CCOc1ccc(NC(=O)N2CCOc3ccccc32)cc1 89.4%
CCc1ccccc1NC(=O)CSc1nnc(-c2nonc2NC(C)=O)n1C -22.1%
Cc1ccc(Cl)cc1Nc1nc2ccccc2n2c(C)nnc12 -9.19%
CCCOc1ccccc1Cn1c(=O)sc2ccccc21 -16.8%
CN(CCOc1ccc(NS(C)(=O)=O)cc1)CCc1ccc(NS(C)(=O)=O)cc1
CCCCc1nn2c(=O)cc(COC(=O)c3ccccc3NC(=O)C(C)(C)C)nc2s1 -12.7%
Cc1cc(NS(=O)(=O)c2ccc(NC(=O)COc3ccc(Br)cc3C)cc2)no1 -19.6%
Cc1[nH]c(=O)[nH]c(=O)c1C1N2CC3(C(C)C)CN1CC(C(C)C)(C2)C3=O (stereo unspecified) -11.5%
CCOC(=O)c1ccc(NC(=O)CN2C(=O)c3cccnc3Oc3ccc(Cl)cc32)cc1 1.32%
Cc1ccc(N2CCn3c2nc2c3c(=O)n(CCc3ccccc3)c(=O)n2C)cc1C -5.75%
COc1cccc2c1cc1c(=O)n(CC(=O)N3CCCCC3)nc(C)n12 -0.359%
Cc1ccc(C(=O)Nc2ccc(C(=O)O)cc2)cc1S(=O)(=O)Nc1ccccc1 19.2%
Cc1ccc(-n2c3c(c(=O)[nH]c2=O)C(NS(=O)(=O)c2ccc(Cl)cc2)(C(F)(F)F)C(=O)N3)cc1 (stereo unspecified) -15.4%
O=c1c2oc3ccccc3c2n(Cc2ccc(Cl)cc2)c(=O)n1Cc1ccc2c(c1)OCO2 -29%
Fc1cccc(NCc2ccccc2-c2nnc(-c3ccccc3Cl)o2)c1 81.8%
COCCNC(=O)CSc1nc2cc3c(cc2c(=O)n1CCCC(=O)NCCc1ccc(OC)c(OC)c1)OCO3 -11.5%
CCC(C)(C)NC(=O)C1CCC(CNS(=O)(=O)c2ccc3c(c2)CC(C)N3C(C)=O)CC1 (stereo unspecified) -15%
CCCCNC(=O)CCCN1C(=O)CCn2nc(-c3cccn3C)cc21 -23.3%
CCOCCCNC(=O)CN1C(=O)c2cccnc2Sc2ccccc21 -4.45%
Cc1ccc(Cl)cc1N1CCN(C2(c3ccccc3)C(=O)c3ccccc3C2=O)CC1 -14.6%
CCN(CC)CCn1c(=O)c(Cc2ccc(OC)cc2)nc2ccccc21 -2.11%
Fc1ccccc1N1CCN(c2nnc(C(F)(F)F)c3nnn(Cc4ccccc4)c23)CC1 0.701%
O=C(Cn1c(SCCOc2ccccc2Cl)nc2ccccc21)N1CCOCC1 -5.68%
COc1ccc2c(CNCc3ccco3)c(C(=O)O)n(Cc3ccc(F)cc3Cl)c2c1 -11%
